# Assay results taken from PubChem BioAssay AID588342 (National Center for Advancing Translational Sciences (NCATS), 2011).
# Hit rate of the full screen: of about 360,000 compounds, about 25,000 (6.9%) were called active. Inconclusive results, whose numbers are uncertain, are shown with a selection of clear calls. Calls come from the whole dose curve; as a rule, active = well fitted inhibition curve with a large enough effect; inconclusive = small, poorly fitted or top-dose-only effect; inactive = flat fitted curve, though single readings scatter. Potencies beside an inconclusive call are fits to weak or partial responses and may not hold up.
# Molecular target: Luciferin 4-monooxygenase (Photinus pyralis) (UniProt P08659)
# Assay: qHTS profiling assay for firefly luciferase inhibitor/activator using purifed enzyme and Km concentrations of substrates (counterscreen for miR-21 project); note: nearly all actives have a fitted effect of over 55% in size;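 for activity change, negative = inhibition: plate controls were vehicle for no effect and reference inhibitor for full effect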
# Settings: purified FLuc, luminescence inhibition; activity change, negative = inhibition: at 57.5 µM (top of the series)
# How it was run: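 Purified P. pyralis luciferase (10nM final) with 10uM D-luciferin and 10uM ATP (Km levels) in 50mM Tris acetate pH 7.5, 10mM Mg acetate, 0.01% Tween-20, 0.05% BSA; qHTS 6-point titration, ~60 µM downward; luminescence read.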
# Potency is the fitted concentration of half-maximal effect; tags give direction and shape of the fitted curve.
# Sequence of UniProt P08659 (P08659 whole entry, looked up): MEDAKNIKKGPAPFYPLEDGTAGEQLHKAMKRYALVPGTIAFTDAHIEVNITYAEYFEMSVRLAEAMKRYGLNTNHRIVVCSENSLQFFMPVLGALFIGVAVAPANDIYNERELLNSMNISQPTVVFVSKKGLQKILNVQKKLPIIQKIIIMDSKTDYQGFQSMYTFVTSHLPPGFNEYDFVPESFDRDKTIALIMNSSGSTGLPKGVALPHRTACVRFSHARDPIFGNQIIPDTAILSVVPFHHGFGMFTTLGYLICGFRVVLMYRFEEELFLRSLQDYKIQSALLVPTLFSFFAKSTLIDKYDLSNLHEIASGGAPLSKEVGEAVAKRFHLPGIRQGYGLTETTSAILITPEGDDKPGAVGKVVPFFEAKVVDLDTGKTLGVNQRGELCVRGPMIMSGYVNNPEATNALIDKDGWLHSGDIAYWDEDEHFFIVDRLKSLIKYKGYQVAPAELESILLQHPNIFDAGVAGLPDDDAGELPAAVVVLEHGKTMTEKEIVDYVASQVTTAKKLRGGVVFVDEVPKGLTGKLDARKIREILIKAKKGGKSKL
SMILES,"activity change, negative = inhibition",Potency
CN(C)S(=O)(=O)c1ccc(C(=O)Nc2nnc(SCc3ccccc3)s2)cc1,inactive: -1.43%,
Cc1cccc(NC(=O)NNC(=O)c2cc(-c3ccccc3Cl)nc3ccccc23)c1,inactive: 1.38%,
COCCn1c(C)cc(C2=NNC(=NC(C)(C)C)SC2)c1C,,"inconclusive: 21.3 µM [inhibitor, single point]"
CN(CCc1ccccc1)C(=O)c1cc(COc2ccc(F)cc2Cl)on1,,"inconclusive: 21.3 µM [inhibitor, single point]"
Cc1ccc(Cl)cc1NC(=O)Cn1c(SCC(=O)NCc2ccccc2)nc2ccccc21,inactive: 6.84%,
Cc1ccc(CONC(=O)c2ccccc2Cl)cc1,,"inconclusive: 26.9 µM [inhibitor, partial curve, poor fit]"
CC1(C)OC(=O)C(=CNc2cccc(O)c2)C(=O)O1,,"inconclusive: 21.3 µM [inhibitor, single point]"
Cc1cccc(Nc2nnc(SCC(=O)c3c(N)n(C4CC4)c(=O)[nH]c3=O)s2)c1C,,"inconclusive: 23.9 µM [inhibitor, single point]"
CNc1nc(-c2ccc3c(c2)CCN3C(=O)c2ccccc2C)cs1,,active: 7.57 µM
O=C(O)CN1C(=O)/C(=C/c2ccsc2)SC1=S,,active: 19 µM
Cc1cc(C)nc(NC(=O)/C=C/c2ccc(Cl)cc2Cl)c1,,active: 7.57 µM
COc1ccc(N(Cc2cc(=O)[nH]c3ccccc23)C(=O)C(C)C)cc1,inactive: -2.23%,
COc1ccc(-n2nc(C(=O)NCC(=O)N3CCCCCC3)c3ccccc3c2=O)cc1OC,,active: 6.75 µM
Cc1ccccc1NC(=O)CCn1nc(-c2ccc(Cl)cc2)c2ccccc2c1=O,inactive: -7.78%,
CCn1nc(C(=O)N2CCN(Cc3nc4ccccc4s3)CC2)c2ccccc2c1=O,,"inconclusive: 22.4 µM [inhibitor, partial curve, poor fit]"
O=C(Nc1ccccc1C(F)(F)F)c1cc2ncc(CCCl)cn2n1,,"inconclusive: 21.3 µM [inhibitor, single point]"
Cc1nc2ccccn2c1C(=O)N/N=C/c1cc(C)n(-c2ccc(Cl)cc2)c1C,,active: 21.3 µM
Cc1cc(=O)oc2cc(OCC3CC(c4ccc(Cl)cc4)=NO3)ccc12 (stereo unspecified),,"inconclusive: 30.1 µM [inhibitor, single point]"
Cc1ccc(NC(=O)CCc2nc3cccnc3n2-c2ccccc2)cc1Cl,inactive: 0.789%,
COc1ccc(N=Cc2oc3ccc4ccccc4c3c2O)cc1,,"inconclusive: 1.9 µM [inhibitor, full curve]"
CCC(C)NC(=O)Cn1c(=O)c2cccn2c2ccc(F)cc21 (stereo unspecified),inactive: -2.01%,
